Measurements reported in publication PMC4350111.
These are yes or no findings as the source states them, for the method shown. In cells and extracts the contact can be indirect. Some entries that bind do so weakly or less than the wild type. Where a sequence is shown, tags or fusion partners need not be part of it.

Amino acid sequences for entries named in this document (tags omitted).
UniProt P03372: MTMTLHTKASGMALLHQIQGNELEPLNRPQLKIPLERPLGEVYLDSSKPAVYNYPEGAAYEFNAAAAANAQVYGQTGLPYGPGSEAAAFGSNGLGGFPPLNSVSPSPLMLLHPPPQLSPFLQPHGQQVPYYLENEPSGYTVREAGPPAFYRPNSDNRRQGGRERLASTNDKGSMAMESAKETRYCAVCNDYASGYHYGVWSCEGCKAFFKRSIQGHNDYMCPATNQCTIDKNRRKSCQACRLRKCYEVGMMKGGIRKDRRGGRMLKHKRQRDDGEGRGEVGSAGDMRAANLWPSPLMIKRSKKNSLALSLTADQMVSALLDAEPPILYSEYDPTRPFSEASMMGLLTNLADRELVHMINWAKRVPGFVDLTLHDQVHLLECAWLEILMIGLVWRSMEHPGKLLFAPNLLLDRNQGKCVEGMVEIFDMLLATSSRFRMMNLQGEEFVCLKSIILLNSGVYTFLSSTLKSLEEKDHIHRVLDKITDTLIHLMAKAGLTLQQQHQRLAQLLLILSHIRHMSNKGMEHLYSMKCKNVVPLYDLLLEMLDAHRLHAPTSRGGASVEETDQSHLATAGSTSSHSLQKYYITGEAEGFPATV
UniProt Q99728: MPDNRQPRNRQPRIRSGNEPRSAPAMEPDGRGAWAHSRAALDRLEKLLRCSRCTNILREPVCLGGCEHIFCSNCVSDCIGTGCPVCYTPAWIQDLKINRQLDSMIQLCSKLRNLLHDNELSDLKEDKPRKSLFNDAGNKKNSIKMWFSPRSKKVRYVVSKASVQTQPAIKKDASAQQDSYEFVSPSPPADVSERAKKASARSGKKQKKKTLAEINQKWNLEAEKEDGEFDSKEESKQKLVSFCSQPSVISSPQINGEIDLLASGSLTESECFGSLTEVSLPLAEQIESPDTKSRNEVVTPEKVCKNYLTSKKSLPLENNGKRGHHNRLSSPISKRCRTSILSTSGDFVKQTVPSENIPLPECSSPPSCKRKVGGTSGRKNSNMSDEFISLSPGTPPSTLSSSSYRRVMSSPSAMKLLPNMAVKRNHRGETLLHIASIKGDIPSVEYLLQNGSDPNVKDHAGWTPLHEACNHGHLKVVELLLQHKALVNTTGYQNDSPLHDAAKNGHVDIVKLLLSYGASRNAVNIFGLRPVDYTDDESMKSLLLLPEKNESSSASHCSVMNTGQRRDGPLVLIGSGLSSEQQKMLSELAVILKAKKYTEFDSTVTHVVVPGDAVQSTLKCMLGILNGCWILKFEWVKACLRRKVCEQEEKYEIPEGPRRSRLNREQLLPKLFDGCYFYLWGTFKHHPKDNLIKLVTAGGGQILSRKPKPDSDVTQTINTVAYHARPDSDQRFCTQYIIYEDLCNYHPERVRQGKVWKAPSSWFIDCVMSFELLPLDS

How the values were obtained:
[1] = target: EGFP-ERα (UniProt P03372); assay: co-IP; tagged proteins transiently expressed in HEK 293T; immunoprecipitation by one tag, Western blot by the other (in some panels vice versa); in Fig. 2g, 4h and 4i cells treated with 10 μM MG132 for 8 h; in Fig. 4h FOXK2 overexpressed, in Fig. 4i FOXK2 knocked down by siRNA
[2] = target: HA-BARD1 (UniProt Q99728); assay: as above

binding [1]	binding [2]	Binder
no binding	binds	Flag-tagged FOXK2 Δ2 (domain or fragment, UniProt Q01167 1-128) MAAAAAALSGAGTPPAGGGAGGGGAGGGGSPPGGWAVARLEGREFEYLMKKRSVTIGRNSSQGSVDVSMGHSSFISRRHLEIFTPPGGGGHGGAAPELPPAQPRPDAGGDFYLRCLGKNGVFVDGVFQ
binds	no binding	Flag-tagged FOXK2 Δ3 (domain or fragment, UniProt Q01167 128-353) QRRGAPPLQLPRVCTFRFPSTNIKITFTALSSEKREKQEASESPVKAVQPHISPLTINIPDTMAHLISPLPSPTGTISAANSCPSSPRGAGSSGYKVGRVMPSDLNLMADNSQPENEKEASGGDSPKDDSKPPYSYAQLIVQAITMAPDKQLTLNGIYTHITKNYPYYRTADKGWQNSIRHNLSLNRYFIKVPRSQEEPGKGSFWRIDPASESKLIEQAFRKRRPR
